Some of the results follow.

For 22 molecules, binding signal results are on record in article PMC12136788.

First the molecules themselves.
T1: UNK ZnF1-3 (human, UniProt Q9C0B0 31-174)
T1 sequence: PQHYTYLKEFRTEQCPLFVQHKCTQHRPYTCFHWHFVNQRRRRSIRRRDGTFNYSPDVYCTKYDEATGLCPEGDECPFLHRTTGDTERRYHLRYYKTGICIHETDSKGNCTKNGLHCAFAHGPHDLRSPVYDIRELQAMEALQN

B1: chr17:57816259:57816260:+_ENSG00000062716_ENST00000262291|hu_mus|motif|central (ssRNA)
RNA: GGGAGUUCUACAGUCCGACGAUCCAGAUAAAGCAGAAAGGUGUGCAGUCCUGUUCCAAGACCAACAGAGGACAAAAUCCCCAGGCCGGUCCAGUAUGCAUACAAAAGAAACUGCUUCUCUAUCCGCUGCACAUACUGUUGGUGCAACAGAGGAUUGAGCAUCA
B2: chr17:62499352:62499353:-_ENSG00000108654_ENST00000581693|hu_hu|motif|central (ssRNA)
RNA: GGGAGUUCUACAGUCCGACGAUCGUCUUAUUUGAUCCACAAUCUUCCUUAUUUGGGGUUCAAAGCCCAUAUCAAGCAUUCGGUCUGCUUCAUCAAGGACAAGGUAGGUUGUUCUUCUCAGAUUGGUUUUUCCACACUCUAAAACAACAGAGGAUUGAGCAUCA
B3: chr13:100204638:100204639:-_ENSMUSG00000052727_ENSMUST00000064762|mus_mus|motif|central (ssRNA)
RNA: GGGAGUUCUACAGUCCGACGAUCGGGGGUGGGCACCUGGCCAGUGAGAUCUUUUUGGGUGGCCAGUGGCUGCUUUAGGAAAUCGGGAUGUUUGAGUUUCUCCAGUCCUUCUAGGAUGUUGUACUGGGUACUGUUUCCGGGAAACAACAGAGGAUUGAGCAUCA
B4: 100489142_100489262_224_3pUTR_ENSMUSG00000008763_ENSMUST00000008907|mouse|control|control (ssRNA)
RNA: GGGAGUUCUACAGUCCGACGAUCCUGCCAUGCCCGCGCCCCGGCGCGAUGCUCAGAGGCGGCUGCCCGCCCCGGGAGGCGCCCGGCGAAGACGACGAGUUGCAGUAGGUCGGUUCCACUCGGUCCCCUCCGGAGCCUCCUCCGCAACAGAGGAUUGAGCAUCA
B5: chr6:119226881:119226882:+_ENSG00000111875_ENST00000229595|hu_hu|motif|central (ssRNA)
RNA: GGGAGUUCUACAGUCCGACGAUCUGGAUUUUCCCUUAAUUCUGUCUCAGUAUAUUCAUUAUUUACAUAAUAGCCAACUCGGAUAAAUUCUUGUCCUCGAUAGGUACAAGUAAUUAGCACAACAGUUACGCCUACUGCAUCUGCCAACAGAGGAUUGAGCAUCA
B6: 71579700_71580607_959_3pUTR_ENSMUSG00000024052_ENSMUST00000129635|mouse|control|control (ssRNA)
RNA: GGGAGUUCUACAGUCCGACGAUCUGGGAAUUACCCUGAAAUGUGUGUUCUCUGAUGGUGUAAUCGUAGCUGUCCUUGGAUGAUAGUCAUACCGUUCUCUUUUGGUGACCUUGGUGGACUCUGGGAACCCGCCCCACGUCCACUCAACAGAGGAUUGAGCAUCA
B7: chr2:102142331:102142332:-_ENSMUSG00000027189_ENSMUST00000102573|mus_mus|FALSE|FALSE (ssRNA)
RNA: GGGAGUUCUACAGUCCGACGAUCAGCUUUGAGGACGAAGCUGAUACCAGUACAGAAAGUAUUCUUGUUCUUACAUUGAUAAAUGCUGCCACUAGGAACUUAGGGAUCUGGGCUAGGGGCUGCUGUGCUGUGUUUAAUGCUUUUCAACAGAGGAUUGAGCAUCA
B8: chr1:46159212:46159213:+_ENSG00000159596_ENST00000372025|hu_mus|hu_hu_hu_mus_True|8_58 (ssRNA)
RNA: GGGAGUUCUACAGUCCGACGAUCUCUGAUCCCUCCCAAGAAAGCUAGGAAACCGGCUCCAUAAGCCAUCUGAGUGAAAGCUAAUAUGGGGAUAUAAGACUUUGUUAUUACCAUGAGAAGUGGGGGAGCAACGAAGGGGAUUAACAACAGAGGAUUGAGCAUCA
B9: chr19:8913615:8913616:-_ENSMUSG00000071658_ENSMUST00000096259|mus_hu|mus_mus_mus_hu_False|38_58 (ssRNA)
RNA: GGGAGUUCUACAGUCCGACGAUCAGGGUACCAAAACCUUCUGCCUGAAAUGGGUGCCCCACCCAGUAGGGAGUUGCAGCUAAAAAUAUCUGAUGCACUGACAGUUACUAUACGAAAGGAGGCCCCUGGGGAGGGCCAGGCCAGCAACAGAGGAUUGAGCAUCA
B10: chr5:128448638:128448639:+_ENSG00000066583_ENST00000173527|hu_mus|hu_hu_hu_mus_False|78_98 (ssRNA)
RNA: GGGAGUUCUACAGUCCGACGAUCGGCACUCGCCUUAAUUAGAUUCUGAAUUUCCUUGAAUUUUGGAUGGUCUUUGUCAGCCACCAGCUGUAGGAGGACAGCCUCACUAGUGGUCACGAUGAUCCCAGUGCGGGCAAGACGCUCCAACAGAGGAUUGAGCAUCA
B11: chr11:86518203:86518204:-_ENSMUSG00000047126_ENSMUST00000103186|perfect_dup|motif|central (ssRNA)
RNA: GGGAGUUCUACAGUCCGACGAUCGAACAACUCCAGGUGUUCUCUCAUUUUCUGUGGCUUGAAUUUAGAAUACAAAAUAGCGGGCUCUGUGAACAUUCCCAUGUGAGCUCGCUCCAGUCCCAAGGCUGCCUCCAACAUGGUGAUCAACAGAGGAUUGAGCAUCA
B12: chr12:73642893:73642894:+_ENSMUSG00000034501_ENSMUST00000044352|mus_mus|FALSE|FALSE (ssRNA)
RNA: GGGAGUUCUACAGUCCGACGAUCCACAAAGAGCACAGCAGUCGCCCCAGGGCUGCCAUACAGCAAGGUUACUCGGUUUGGGAGCAAAUACCAUGUUCCAAGACCACACACUAGCCCAGCAAGAACAGAAUGAAAAACUGUAUUCAACAGAGGAUUGAGCAUCA
B13: chr18:52894491:52894492:-_ENSG00000196628_ENST00000354452|hu_mus|FALSE|FALSE (ssRNA)
RNA: GGGAGUUCUACAGUCCGACGAUCCAAAAAAAAAAAUCCAUAUUUACAGUAAAAUCUUUCUUUUAAAAAAGUUAAUCAGUACUAUUUUUUUACAGGAGAAAAAAGUCUGAAACAAAUCAACAAAAGCUUACCAUAGUCACUAAACAACAGAGGAUUGAGCAUCA
B14: chr12:56508462:56508463:+_ENSMUSG00000021024_ENSMUST00000021412|mus_mus|FALSE|FALSE (ssRNA)
RNA: GGGAGUUCUACAGUCCGACGAUCACAGUCCUUUCCUCUGACAGCAACAGAUGUAAGUCCACCCUGGUUAAUAGCCUUAAAAGCAUAUUCUACUUGGUAGAGUCGGCCCUCGGGAGAGAAGAUAGUAAUGUGACGGUCAAAACCCAACAGAGGAUUGAGCAUCA
B15: chr1:39494447:39494448:+_ENSG00000168653_ENST00000372967|hu_mus|hu_hu_hu_mus_False|48_98 (ssRNA)
RNA: GGGAGUUCUACAGUCCGACGAUCGCACCGAGCGGCGAUCUUGUAGGGCUGUUCUGCGCUUAGGAACAUAAAGUGCCGGUCCAGGCUAAGGCCGAACUUUUUCUGUAUGUCAAGGAAAGGCAUGGCUCUGCAGUGCCCUUGUCACAACAGAGGAUUGAGCAUCA
B16: chr7:140404665:140404666:+_ENSG00000090266_ENST00000247866|hu_hu|hu_hu_hu_mus_False|18_98 (ssRNA)
RNA: GGGAGUUCUACAGUCCGACGAUCUGCUCCUACUCGUAGGCUGAGUCUACAGUGUCAGUCCUCGUCAUCAGGAGGGAUUCCCAGUUCUUCAUCUGUCCACUGUGAAGGAUCUGGAUACGGAAAGUGACCCAGCACAGCAUCCGACAACAGAGGAUUGAGCAUCA
B17: chr12:29513650:29513651:+_ENSMUSG00000036613_ENSMUST00000035657|mus_mus|FALSE|FALSE (ssRNA)
RNA: GGGAGUUCUACAGUCCGACGAUCCUCCAGGGUCUGAGCAGUGCUUGCAGGGUCGUCAGGGGACUCGUGGCUACCGGAUUCUAAUUCCUUGGGCAUCCUCCACACAGCUGCACACGCCUGGACUCGACUGUCUGUAGUUUUGUUCAACAGAGGAUUGAGCAUCA
B18: chr6:86333760:86333761:-_ENSG00000135316_ENST00000355238|hu_mus|hu_hu_hu_mus_True|18_78 (ssRNA)
RNA: GGGAGUUCUACAGUCCGACGAUCUUCCUCAAGAAUCUGCUCCUUGGUUUUACUCUUAGGAAUAGAGCCCACAAAAAGCCUAUUGUUGGCAACUGAGAUGCAGACACCAAUGUGCUUUCCAGAACGAAUUUCAUGAUUAUUAUACAACAGAGGAUUGAGCAUCA
B19: 160276187_160276976_1568_CDS_ENSG00000122218_ENST00000241704|human|control|control (ssRNA)
RNA: GGGAGUUCUACAGUCCGACGAUCAAGCAGGAGAUUGCCUGUGCCAGCAUAGAAGAUCUCAUCACAGUUGGGCACCUGUACCUUUUUGGUGAUCUCAUUCUUCAGAUUCUUGAUCAGAAGCGAAUGCAUCCGAUCUAGGACAGCCAACAGAGGAUUGAGCAUCA
B20: chr8:74858975:74858976:-_ENSG00000154582_ENST00000284811|hu_mus|hu_hu_hu_mus_True|18_18 (ssRNA)
RNA: GGGAGUUCUACAGUCCGACGAUCGACCUUGUAGGUAAAAUACAUGCACACUUUUGAUAGCACAUGUGAGGGGAUCUCUCUAAAAUUGACCUCGUUGGUUUCAUUCUCAGCAAACUGACCUGGGCCACUCAACAUAGCCUUUAUCAACAGAGGAUUGAGCAUCA
B21: chr2:152658766:152658767:-_ENSG00000162980_ENST00000295087|hu_hu|FALSE|FALSE (ssRNA)
RNA: GGGAGUUCUACAGUCCGACGAUCACUCUGAAAUUCACUUUAACUGCUUGACAUAUAAUUUAAUACUUAAAAAUAAUAUAGCUAAGUUGUUUAAUAGUAUUUAUAGAAUGCUACUUUUCUGGGUAGACAUGUUUCACAAAACAGCAACAGAGGAUUGAGCAUCA
B22: chr4:99997899:99997900:-_ENSG00000197894_ENST00000296412|hu_mus|FALSE|FALSE (ssRNA)
RNA: GGGAGUUCUACAGUCCGACGAUCAGGCUCCACCUUGGCAGUGUUCACAGCAGCCCCGUAGCCAGUUGAAAUACCACAGCCGAGAAGGCAGACUUUAUCCAAAGGGGCCGAAGGAUCGAUUUUAGCAACAGAGAUGUCAGCCACCAACAGAGGAUUGAGCAUCA

For the assay, the target named is T1, UNK ZnF1-3. As to the kind of experiment: nsRBNS (natural sequence RNA bind-n-seq); RBNS binding buffer (assumed for nsRBNS): 25 mM Tris pH 7.5, 150 mM KCl, 3 mM MgCl2, 0.01% Triton X-100, 500 ug/ml BSA, 20 U/ml SUPERase-In, 4 C; UNK is unkempt and MSI1 is Musashi-1; names of the RNAs are library labels; protein concentration not given here; high values mean tight binding.
Molecule B1 displayed a binding signal of 0.959 enrichment R.

Turning to B2, the binding signal was 0.706 enrichment R.

Molecule B3 displayed a binding signal of 0.761 enrichment R.

The molecule B4 yielded a binding signal of 0.69 enrichment R.

With B5, the binding signal turned out to be 1.02 enrichment R.

As to B6, the binding signal was 0.577 enrichment R.

Molecule B7 had a binding signal of 1.67 enrichment R.

Regarding B8, the binding signal turned out to be 1.46 enrichment R.

Take B9: the binding signal is 1.39 enrichment R.

B10 had a binding signal of 0.961 enrichment R.

Turning to B11, the binding signal was 0.775 enrichment R.

B12 registered a binding signal of 1.25 enrichment R.

In turn, B13 showed a binding signal of 1.78 enrichment R.

With B14, the binding signal is 1.19 enrichment R.

Consider B15, for which the binding signal is 0.622 enrichment R.

The molecule B16 showed a binding signal of 0.909 enrichment R.

B17 returned a binding signal of 0.889 enrichment R.

Take B18: the binding signal amounted to 1.07 enrichment R.

In the case of B19, the binding signal is 1.01 enrichment R.

Regarding B20, the binding signal was found to be 0.649 enrichment R.

Take B21: the binding signal was determined as 1.68 enrichment R.

B22 came in with a binding signal of 1.83 enrichment R.
